{"source": "the supplement of paper PMC8728848", "experiment_in_all_cases": "glycan array binding signal (z-score within array); higher = stronger binding", "settings_in_all_cases": "glycan notation: IUPAC condensed, linker removed; mutation: R343A", "key": {"[1]": {"biological_target": "Gal3S(b1-4)GlcNAc6S", "outline": "(§1)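 Negative Z-scores can be read as non-binding. The Z-score is calculated within each array and then averaged across arrays of one protein sequence at different concentrations or buffers and across linkers. Arrays, 3228 in all, were curated from the Consortium for Functional Glycomics database and kept only where the protein sequence was available.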"}, "[2]": {"biological_target": "Gal3S(b1-4)[Fuc(a1-3)]Glc", "outline": "as §1"}, "[3]": {"biological_target": "Gal3S4S(b1-4)GlcNAc", "outline": "as §1"}, "[4]": {"biological_target": "Gal3S6S(b1-4)GlcNAc", "outline": "as §1"}, "[5]": {"biological_target": "Gal3S6S(b1-4)GlcNAc6S", "outline": "as §1"}, "[6]": {"biological_target": "Gal4S(b1-4)GlcNAc", "outline": "as §1"}, "[7]": {"biological_target": "Gal4S6S(b1-4)GlcNAc", "outline": "as §1"}, "[8]": {"biological_target": "Gal6S(b1-4)Glc", "outline": "as §1"}, "[9]": {"biological_target": "Gal6S(b1-4)Glc6S", "outline": "as §1"}, "[10]": {"biological_target": "Gal6S(b1-4)GlcNAc", "outline": "as §1"}, "[11]": {"biological_target": "Gal6S(b1-4)GlcNAc6S", "outline": "as §1"}, "[12]": {"biological_target": "GalNAc(a1-3)Gal", "outline": "as §1"}, "[13]": {"biological_target": "GalNAc(a1-3)GalNAc", "outline": "as §1"}, "[14]": {"biological_target": "GalNAc(b1-3)Gal", "outline": "as §1"}, "[15]": {"biological_target": "GalNAc(b1-3)Gal(a1-4)Gal(b1-4)GlcNAc", "outline": "as §1"}, "[16]": {"biological_target": "GalNAc(b1-3)GalNAc", "outline": "as §1"}, "[17]": {"biological_target": "GalNAc(b1-4)GlcNAc", "outline": "as §1"}, "[18]": {"biological_target": "Glc(a1-4)Glc", "outline": "as §1"}, "[19]": {"biological_target": "Glc(a1-6)Glc(a1-6)Glc", "outline": "as §1"}, "[20]": {"biological_target": "Glc(b1-4)Glc", "outline": "as §1"}, "[21]": {"biological_target": "Glc(b1-6)Glc", "outline": "as §1"}, "[22]": {"biological_target": "GlcA(b1-3)Gal", "outline": "as §1"}, "[23]": {"biological_target": "GlcA(b1-3)GlcNAc", "outline": "as §1"}, "[24]": {"biological_target": "GlcA(b1-6)Gal", "outline": "as §1"}, "[25]": {"biological_target": "GlcNAc(a1-3)Gal(b1-4)GlcNAc", "outline": "as §1"}, "[26]": {"biological_target": "GlcNAc(a1-6)Gal(b1-4)GlcNAc", "outline": "as §1"}, "[27]": {"biological_target": "GlcNAc(b1-2)Gal(b1-3)GalNAc", "outline": "as §1"}, "[28]": {"biological_target": "GlcNAc(b1-2)Man(a1-3)[GlcNAc(b1-2)Man(a1-6)]Man(b1-4)GlcNAc(b1-4)GlcNAc", "outline": "as §1"}, "[29]": {"biological_target": "GlcNAc(b1-3)Gal", "outline": "as §1"}, "[30]": {"biological_target": "GlcNAc(b1-3)Gal(b1-3)GalNAc", "outline": "as §1"}, "[31]": {"biological_target": "GlcNAc(b1-3)Gal(b1-4)Glc", "outline": "as §1"}, "[32]": {"biological_target": "GlcNAc(b1-3)Gal(b1-4)GlcNAc", "outline": "as §1"}, "[33]": {"biological_target": "GlcNAc(b1-3)Gal(b1-4)GlcNAc(b1-3)Gal(b1-4)GlcNAc", "outline": "as §1"}, "[34]": {"biological_target": "GlcNAc(b1-3)GalNAc", "outline": "as §1"}, "[35]": {"biological_target": "GlcNAc(b1-3)Man", "outline": "as §1"}, "[36]": {"biological_target": "GlcNAc(b1-3)[GlcNAc(b1-4)][GlcNAc(b1-6)]GlcNAc", "outline": "as §1"}, "[37]": {"biological_target": "GlcNAc(b1-3)[GlcNAc(b1-6)]Gal(b1-4)GlcNAc", "outline": "as §1"}}, "note": "The other results are listed elsewhere or left out."}
{"binder": "Surfactant Protein D (Human); Neck + Carbohydrate Recognition Domain (NCRD) (Homo sapiens) (protein) MLLFLLSALVLLTQPLGYLEAEMKTYSHRTMPSACTLVMCSSVESGLPGRDRDGREGPRGEKGDPGLPGAAGQAGMPGQAGPVGPKGDNGSVGEPGPKGDTGPSGPPGPPGVPGPAGREGALGKQGNIGPQGKPGPKGEAGPKGEVGAPGMQGSAGARGLAGPKGERGVPGERGVPGNTGAAGSAGAMGPQGSPGARGPPGLKGDKGIPGDKGAKGESGLPDVASLRQQVEALQGQVQHLQAAFSQYKKVELFPNGQSVGEKIFKTAQFVKPFTEAQLLCTQAGGQLASPRSAAENAALQQLVVAKNEAAFLSMTDSKTEGKFTYPTGESLVYSNWAPGEPNDDGGSEDCVEIFTNGKWNDAACGEKRLVVCEF", "values": [{"measurement": "glycan array binding signal (z-score)", "setting": "[1]", "result": 0.4}, {"measurement": "glycan array binding signal (z-score)", "setting": "[2]", "result": 0.051}, {"measurement": "glycan array binding signal (z-score)", "setting": "[3]", "result": 0.063}, {"measurement": "glycan array binding signal (z-score)", "setting": "[4]", "result": 0.541}, {"measurement": "glycan array binding signal (z-score)", "setting": "[5]", "result": 0.624}, {"measurement": "glycan array binding signal (z-score)", "setting": "[6]", "result": 0.25}, {"measurement": "glycan array binding signal (z-score)", "setting": "[7]", "result": 0.061}, {"measurement": "glycan array binding signal (z-score)", "setting": "[8]", "result": 0.067}, {"measurement": "glycan array binding signal (z-score)", "setting": "[9]", "result": 0.522}, {"measurement": "glycan array binding signal (z-score)", "setting": "[10]", "result": 0.075}, {"measurement": "glycan array binding signal (z-score)", "setting": "[11]", "result": -0.324}, {"measurement": "glycan array binding signal (z-score)", "setting": "[12]", "result": -0.339}, {"measurement": "glycan array binding signal (z-score)", "setting": "[13]", "result": -0.036}, {"measurement": "glycan array binding signal (z-score)", "setting": "[14]", "result": -0.337}, {"measurement": "glycan array binding signal (z-score)", "setting": "[15]", "result": -0.271}, {"measurement": "glycan array binding signal (z-score)", "setting": "[16]", "result": -0.381}, {"measurement": "glycan array binding signal (z-score)", "setting": "[17]", "result": -0.186}, {"measurement": "glycan array binding signal (z-score)", "setting": "[18]", "result": -0.414}, {"measurement": "glycan array binding signal (z-score)", "setting": "[19]", "result": -0.376}, {"measurement": "glycan array binding signal (z-score)", "setting": "[20]", "result": -0.271}, {"measurement": "glycan array binding signal (z-score)", "setting": "[21]", "result": -0.1}, {"measurement": "glycan array binding signal (z-score)", "setting": "[22]", "result": -0.187}, {"measurement": "glycan array binding signal (z-score)", "setting": "[23]", "result": -0.09}, {"measurement": "glycan array binding signal (z-score)", "setting": "[24]", "result": -0.241}, {"measurement": "glycan array binding signal (z-score)", "setting": "[25]", "result": 0.13}, {"measurement": "glycan array binding signal (z-score)", "setting": "[26]", "result": -0.085}, {"measurement": "glycan array binding signal (z-score)", "setting": "[27]", "result": -0.27}, {"measurement": "glycan array binding signal (z-score)", "setting": "[28]", "result": -0.308}, {"measurement": "glycan array binding signal (z-score)", "setting": "[29]", "result": -0.29}, {"measurement": "glycan array binding signal (z-score)", "setting": "[30]", "result": -0.384}, {"measurement": "glycan array binding signal (z-score)", "setting": "[31]", "result": -0.383}, {"measurement": "glycan array binding signal (z-score)", "setting": "[32]", "result": -0.343}, {"measurement": "glycan array binding signal (z-score)", "setting": "[33]", "result": -0.173}, {"measurement": "glycan array binding signal (z-score)", "setting": "[34]", "result": -0.28}, {"measurement": "glycan array binding signal (z-score)", "setting": "[35]", "result": -0.274}, {"measurement": "glycan array binding signal (z-score)", "setting": "[36]", "result": -0.284}, {"measurement": "glycan array binding signal (z-score)", "setting": "[37]", "result": -0.3}]}
